Results from PubChem BioAssay AID463173 (ICCB-Longwood Screening Facility, Harvard Medical School, 2010).
Among all 52,000 compounds or so, about 4,300 (8.3%) were called active. Rule as the data show it: active = survival mostly below about 52% (no sharp cut-off); inactive = mostly above about 56%. The list shows a part of the results.

What follows are molecules tested on DeltatarO mutant (assay: S. aureus survival, RN4220 and DeltatarO strains – OD600, teichoic acid synthesis inhibitors, primary screen (AID 463173)). Settings: S. aureus RN4220 wild type/DeltatarO growth, OD600, 18 h, active compounds read low, screened at 18.75 µg/mL (by protocol).
`COc1ccc(CCCc2nnc(SCC(=O)Nc3cccc(C)c3)o2)cc1` was tested, and the survival was inactive: 81%. In the case of `CCOc1cccc(CC(=O)NCc2ccc3c(c2)CCN3C(C)=O)c1OCC`, the survival is reported as inactive: 83%. `CCC(C)NC(=O)CCc1c(C)nc2c(c(C)nn2-c2ccc(C)cc2)c1C` (stereo not given) was tested, and the survival was inactive: 93%. For `Cc1ccc2[nH]cc(C(c3ccccc3)c3ccc(C)s3)c2c1` (stereo not given), the survival was active: 25%. For `Cc1c(Cl)cccc1NC(=O)CC(c1ccc(F)cc1)N1Cc2ccccc2C1=O` (stereo not given), the survival was active: 37%. In the case of `COCC(C)NC(=O)c1cc2c(=O)n3cccc(C)c3nc2s1` (stereo not given), the survival is reported as inactive: 65%. `CCOC(=O)c1ccc(-c2ccc(/C=C(\C#N)c3nc4ccc(C)cc4[nH]3)o2)cc1` was tested, and the survival was active: 32%. `CCc1ccc(Sc2cc(C(=O)O)c3ccccc3n2)cc1` was tested, and the survival was inactive: 78%. `COc1ccc(Cn2c(CO)cnc2SCc2ccc(F)cc2)cc1` was tested, and the survival was active: 17%. For `O=C(CN1CCCC1)Nc1ccc(F)cc1`, the survival was inactive: 97%. With `COc1ccc(-n2nc(C(=O)N(C)c3cc(Cl)ccc3OC)c3c4ccccc4n(C)c3c2=O)cc1` the survival was inactive: 88%. With `COc1ccc(S(=O)(=O)c2nnn(-c3ccccc3F)c2C)cc1` the survival was inactive: 79%. In the case of `Cc1nn(CCCC(=O)NCc2ccc(OC(C)C)cc2)c(=O)c2c1sc1ccccc12`, the survival is reported as inactive: 73%. For `Cc1ccc(Cc2nc3ccccc3nc2SCC(=O)N2CCN(c3ccccc3)CC2)cc1`, the survival was inactive: 84%. For `CCOc1ccccc1NC(=O)C1=C(C)Nc2ncnn2C1c1ccc(NC(C)=O)cc1` (stereo not given), the survival was inactive: 63%. With `Cc1ccc(NC(=O)CC2Nc3cc(C)c(C)cc3NC2=O)c(C)c1` (stereo not given) the survival was inactive: 72%. For `N#CC1=C2SCN(C3CCCCC3)CN2C(=O)CC1c1c(F)cccc1Cl` (stereo not given), the survival was inactive: 82%. With `O=[N+]([O-])c1cc(-c2nc(-c3ccco3)no2)ccc1NCc1ccccc1` the survival was active: 47%. For `Nn1cnnc1SCC(=O)N(C1CCCCC1)C1CCCCC1`, the survival was inactive: 85%. In the case of `CCCN1CCN(c2cc3c(cc2F)c(=O)c(S(=O)(=O)c2ccc(CC)cc2)cn3CC)CC1`, the survival is reported as inactive: 94%. In the case of `O=C(CSc1nnnn1-c1ccc2c(c1)OCCO2)NC1CCCC1`, the survival is reported as inactive: 79%. `CCn1ccc2c(OCC(=O)NCc3ccccc3)cccc2c1=O` was tested, and the survival was inactive: 102%. In the case of `Cc1ccc(S(=O)(=O)c2[nH]c(-c3ccccc3)nc2SCCC(=O)O)cc1`, the survival is reported as inactive: 78%. `COCCn1c(SCC(=O)Nc2sc(C)c(C)c2C#N)nnc1C(C)C` was tested, and the survival was inactive: 86%. `CCCn1c(=N)n(CC(O)COc2ccccc2OC)c2ccccc21` (stereo not given) was tested, and the survival was inactive: 88%. `Cc1cccc(N(Cc2cc3ccccc3[nH]c2=O)C(=O)c2cccc(Cl)c2)c1` was tested, and the survival was inactive: 76%. With `CCOc1ccc(NC(=O)c2c(Nc3ccccc3C)sc(C(=O)c3ccc(Cl)cc3)c2N)cc1` the survival was inactive: 126%. In the case of `Cc1nn(CC(=O)N2CCN(c3cccc(C(F)(F)F)c3)CC2)c(=O)c2cc3sccc3n12`, the survival is reported as inactive: 90%. `COc1ccccc1CNC(=O)C1CCCN(c2nnc(C)c3c(C)n(-c4ccccc4)nc23)C1` (stereo not given) was tested, and the survival was inactive: 86%. `CN(C)c1ccc(NC(=O)CSc2nc3ccccc3cc2C#N)cc1` was tested, and the survival was inactive: 66%. In the case of `CN1CCN(C(=S)NC(=O)c2ccccc2)CC1`, the survival is reported as inactive: 100%. In the case of `O=C(CCSCc1cccc(Cl)c1)NCc1ccc(F)cc1Cl`, the survival is reported as inactive: 102%. `Cc1ccc2[nH]c(CSc3nnc(NC(=O)c4ccccc4F)s3)cc(=O)c2c1` was tested, and the survival was inactive: 83%. `CC(C)(C)C1CCc2nc(NC(=O)c3ccc([N+](=O)[O-])cc3)sc2C1` (stereo not given) was tested, and the survival was inactive: 95%. `CC1Cn2c(C(=O)NCc3cccc(Br)c3)cc3cccc(c32)S1` (stereo not given) was tested, and the survival was inactive: 87%. `COC(=O)c1ccc(Nc2cc(=O)[nH]c(=O)[nH]2)cc1` was tested, and the survival was inactive: 79%. With `COc1ccc2oc(-c3ccc(C)c(NC(=O)c4ccc(-c5ccccc5[N+](=O)[O-])o4)c3)nc2c1` the survival was active: 42%. For `Cc1ccc(C(=O)O)cc1NC1(c2ccccc2)C(=O)c2ccccc2C1=O`, the survival was inactive: 135%. `Cc1c(Cl)cccc1NC(=O)CSc1nc2ncccc2o1` was tested, and the survival was active: 6%. With `COc1cccc(/C=C/c2nc(C#N)c(NCCc3ccccc3)o2)c1` the survival was inactive: 90%. In the case of `COc1ccc(C(=O)Nc2ccc3oc(-c4cccnc4)nc3c2)cc1`, the survival is reported as inactive: 53%. With `Clc1cccc(N2CCN(c3nc4ccccc4n4nnnc34)CC2)c1` the survival was inactive: 74%. With `COc1ccc(C2C=C(c3ccccc3)Nc3nc(NC(=O)c4cccc([N+](=O)[O-])c4)nn32)cc1` (stereo not given) the survival was inactive: 55%. In the case of `COc1ccccc1-c1nc(SCC(=O)NCc2ccc(C)cc2)c2c(=O)n(C)c(=O)n(C)c2n1`, the survival is reported as inactive: 69%. For `Cc1ccc(NC(=O)CNC2CCCCC2)cc1Cl`, the survival was inactive: 61%. With `S=c1[nH]nc(-c2ccncc2)n1Cc1ccccc1` the survival was inactive: 63%. With `Cc1cccc(CN2C(=O)N(c3ccc(C(C)C)cc3)S(=O)(=O)c3ccccc32)c1` the survival was inactive: 88%. `Cc1ccc(-c2ccc(=O)n(CC(=O)Nc3ccc(C)cc3Cl)n2)cc1` was tested, and the survival was inactive: 50%. For `O=C(CSc1nnc(CNc2ccc(F)cc2)o1)N1c2ccccc2Sc2ccccc21`, the survival was inactive: 97%. For `Cc1ccc(Cl)cc1N1CCN(C(=O)c2ccc(NC(=O)c3nsc4ccccc34)cc2)CC1`, the survival was active: 6%. In the case of `CCOC(=O)COc1ccc(CC)cc1C(=O)c1ccn2nc(-c3ccccc3)cc2n1`, the survival is reported as inactive: 78%. In the case of `COC(=O)c1sccc1S(=O)(=O)N1CCN(c2cc(Cl)ccc2C)CC1`, the survival is reported as inactive: 83%. For `COCCNC(=O)CCn1c(=O)c2cc(OC)c(OC)cc2n(CC(=O)Nc2ccc(Cl)cc2F)c1=O`, the survival was inactive: 67%. For `Cc1ccc(-c2n[nH]c3c2C(c2ccc(C(C)(C)C)cc2)NC3=O)cc1` (stereo not given), the survival was inactive: 109%. `Cc1nn(S(=O)(=O)c2ccc(C(C)(C)C)cc2)c(C)c1S(=O)(=O)N1CCCCCC1` was tested, and the survival was inactive: 83%. For `Cc1ccc(NC(=O)c2oc3ccc(S(=O)(=O)N4CCC5(CC4)OCCO5)cc3c2C)cc1C`, the survival was inactive: 123%. `C=C(C)Cn1c(CO)nc2ccccc21` was tested, and the survival was inactive: 73%. With `Cc1ccc(OCC(=O)Nc2cccc(-c3nc4ccccc4s3)c2)cc1` the survival was active: 47%. In the case of `Cc1c(C(=O)NCc2ccccc2)sc2nc3n(c(=O)c12)CCCCC3`, the survival is reported as inactive: 56%. `CCOC(=O)c1ccc(NC(=O)C2CCCN(c3ncnc4onc(-c5ccc(F)cc5)c34)C2)cc1` (stereo not given) was tested, and the survival was inactive: 94%. `COc1cccc(CNC(=O)c2sc3nc(C)cc(C)c3c2-n2cccc2)c1OC` was tested, and the survival was inactive: 74%. `CC(=O)c1cccc(NC(=O)C2CCN(C(=O)c3cnn(-c4ccccc4)c3-n3cccc3)CC2)c1` was tested, and the survival was inactive: 109%. `Cc1c(C(=O)NCc2ccccc2Cl)sc2nc3n(c(=O)c12)CCCCC3` was tested, and the survival was inactive: 90%. For `Cc1cn2c(=O)cc(COC(=O)c3cccc(NC(=O)c4ccc(C(C)(C)C)cc4)c3)nc2s1`, the survival was inactive: 103%. In the case of `CCn1cc2nc(SCC(=O)Nc3ccc(OC)c(OC)c3)n(Cc3ccc(Cl)cc3)c(=O)c2n1`, the survival is reported as inactive: 46%. With `COc1ccc(-c2cc(-c3ccc(F)cc3)nc3c2COc2ccc(F)cc2-3)cc1` the survival was inactive: 65%. For `CCOc1ccc(-n2c(/C=C/c3cccc(F)c3)nc3cc(OC)c(OC)cc3c2=O)cc1`, the survival was inactive: 73%. In the case of `COc1ccc(-c2oc3ncn4nc(-c5ccccc5O)nc4c3c2-c2ccc(OC)cc2)cc1`, the survival is reported as inactive: 62%. In the case of `Cc1nn2c(=O)cc(COC(=O)c3cccc(NC(=O)CCc4ccccc4)c3)nc2s1`, the survival is reported as inactive: 72%. With `Cc1ccccc1-c1nc2scc(CCNS(=O)(=O)c3ccccc3)n2n1` the survival was inactive: 81%. For `CCC1CN(C(=O)N2CCC(C(=O)NCc3ccc(N(C)C)cc3)CC2)c2ccccc2O1` (stereo not given), the survival was inactive: 73%. For `CCCCC(=O)NCc1nc2cccnc2n1Cc1ccc(OC)cc1`, the survival was inactive: 92%. `CCOC(=O)c1ccc(N2CCN(c3cc(C)ccc3C)CC2)c(NC(=O)Nc2ccc(CC)cc2)c1` was tested, and the survival was inactive: 79%. `Cc1cccc(-c2cc3nc(-c4ccccc4)cc(=O)n3[nH]2)c1` was tested, and the survival was inactive: 97%. `Cc1ccc2c(c1)C(Cc1ccccc1F)C(=O)N2` (stereo not given) was tested, and the survival was inactive: 115%. `Cc1cc(C)nc(NC(=O)COc2ccc(Br)cc2)n1` was tested, and the survival was inactive: 84%. `COc1ccc(CCNC(=O)C(CC(C)C)N2Cc3ccccc3C2=O)c(OC)c1OC` (stereo not given) was tested, and the survival was inactive: 88%. `CCn1cc(CCC(=O)NCc2ccc(C)cc2)c2ccccc21` was tested, and the survival was inactive: 77%. In the case of `COc1cc2c(=O)n(Cc3ccccc3Cl)c(=O)n(CC(=O)Nc3ccc(C)c(C)c3)c2cc1OC`, the survival is reported as inactive: 83%. `CC(C)Oc1ccccc1C1C=C(C(=O)O)Nc2ncnn21` (stereo not given) was tested, and the survival was inactive: 128%. With `COc1ccc(CCn2c3c(c(=O)[nH]c2=O)C(NC(=O)c2ccccc2F)(C(F)(F)F)C(=O)N3)cc1OC` (stereo not given) the survival was inactive: 60%. In the case of `S=C(NCCCN1CCOCC1)Nc1ccccc1`, the survival is reported as inactive: 89%. In the case of `COc1ccc(C)cc1NC(=O)C1CCN(S(=O)(=O)c2ccc3[nH]c(=O)oc3c2)CC1`, the survival is reported as inactive: 80%. In the case of `Cc1cccc(C(=O)Nc2cc(-c3nc4cccnc4s3)ccc2C)c1`, the survival is reported as active: 45%. `O=C1CN(C(=O)COc2ccc(Cl)cc2)C(c2ccccc2)c2cc(Br)ccc2N1` (stereo not given) was tested, and the survival was inactive: 60%. For `O=C(NCc1ccccc1)C1CCCN(S(=O)(=O)c2cccc3nsnc23)C1` (stereo not given), the survival was inactive: 99%. In the case of `CC(C)(C)OC(=O)N1CCC(c2c(C(=O)Nc3ccc4c(c3)OCCO4)cnn2-c2ccc(Cl)cc2)CC1`, the survival is reported as inactive: 87%. For `CCOc1ccc(NC(=O)CN2C(=O)CC(C)Sc3ccccc32)cc1` (stereo not given), the survival was inactive: 83%. In the case of `O=C(NCc1cccnc1)c1cnn2c(C(F)F)cc(-c3ccccc3)nc12`, the survival is reported as inactive: 77%. `CC(=O)Nc1ccc(/C=C/c2nc(-c3ccccc3O)n(-c3ccccc3)n2)cc1` was tested, and the survival was inactive: 84%.
